Measured values as given in US8623864B2, “Thioridazine and derivatives thereof for reversing anti-microbial drug-resistance” (NOA Sic Aps, priority 2003, dated 2014).
Values after ≈ are worked out from the molar mass of the structure shown.

How the values were obtained:
[1] = system: E. faecium strains; test: microbe, parasite or virus in culture; settings: Enterococcus faecium
[2] = system: E. faecalis strains; test: microbe, parasite or virus in culture; settings: Enterococcus faecalis
[3] = system: E. faecalis and E. faecium strains; settings: regardless of susceptibility to commonly used antibiotics
[4] = system: E. faecium strains; test: MIC of antibiotics by the E-test; assay type: cell-based, Enterococcus faecium; settings: for MIC: Enterococcus faecium
Procedure: (§1) Strains of E. faecalis and E. faecium were clinical isolates obtained from Sønderborg, Odense and Statens Serum Institut (SSI), Copenhagen, Denmark. According to the profile of vancomycin-resistance, tested strains were either vancomycin-sensitive, VanA- or VanB-positive enterococci. Resistance determination was performed in accordance to the National Committee for Clinical Laboratory Standards (NCCLS) and national guidelines (SSI).
(§2) Animal strains were isolated from the feces of pigs and poultry in Belgium and Denmark and donated by the Veterinary and Agrochemical Research Center (VAR), Brussels, Belgium and the Danish Veterinary Laboratory, Copenhagen, Denmark.
(§3) Oxoid Iso-Sensitest agar was purchased from Oxoid, and adjusted to pH 7.3.
(§4) The minimum inhibitory concentration (MIC) of each antibiotic against various strains employed in this study was determined by the E-test system (Sanchez et al. 1992) and checkerboard microdilution techniques (Eliopulos & Moellering 1991).

[5] = system: E. faecalis strains; test: MIC of antibiotics by the E-test; assay type: cell-based, Enterococcus faecalis; settings: for MIC: Enterococcus faecalis
Procedure: as §1, §2, §3, §4

[6] = read-out: MIC (agar dilution), human E. faecium strain 73047
[7] = read-out: MIC (agar dilution), human E. faecium strains 76366, 79765, 87156, 91185
[8] = read-out: MIC (agar dilution), veterinary E. faecium strain 30658
[9] = read-out: MIC (agar dilution), veterinary E. faecium strains 30651, 30656, 30665
[10] = read-out: MIC (agar dilution), human E. faecalis strains A, B, C, D, E
[11] = read-out: MIC (agar dilution), veterinary E. faecalis strains VT 16, VT 22, VT 37, VT 71, DR 2698, DR 2891
[12] = human E. faecium strains 73047, 91185
[13] = veterinary E. faecium strain 30651
[14] = veterinary E. faecium strain 30658
[15] = veterinary E. faecium strains 30656, 30665
[16] = human E. faecalis strain A (Van B)
[17] = human E. faecalis strain B (Van B)
[18] = human E. faecalis strain C (Van B)
[19] = human E. faecalis strain D (Van A)
[20] = veterinary E. faecalis strain DR 2698
[21] = veterinary E. faecalis strain VT 37
[22] = veterinary E. faecalis strain VT 71
[23] = veterinary E. faecalis strains VT16, VT 22, DR 2891

SMILES	MIC [1, 6] [µg/mL]	MIC [1, 7] [µg/mL]	MIC [1, 8] [µg/mL]	MIC [1, 9] [µg/mL]	MIC [2, 10] [µg/mL]	MIC [2, 11] [µg/mL]	Concentration inhibiting all strains [3] [µg/mL]	Interpretation (clinical susceptibility/resistance) ([4]; human E. faecium strain 76366)	Interpretation (clinical susceptibility/resistance) ([4]; human E. faecium strain 79765)	Interpretation (clinical susceptibility/resistance) ([4]; human E. faecium strain 87156)	Interpretation (clinical susceptibility/resistance) [4, 12]	Interpretation (clinical susceptibility/resistance) [4, 13]	Interpretation (clinical susceptibility/resistance) [4, 14]	Interpretation (clinical susceptibility/resistance) [4, 15]	Interpretation (clinical susceptibility/resistance) [5, 16]	Interpretation (clinical susceptibility/resistance) [5, 17]	Interpretation (clinical susceptibility/resistance) [5, 18]	Interpretation (clinical susceptibility/resistance) [5, 19]	Interpretation (clinical susceptibility/resistance) ([5]; human E. faecalis strain E)	Interpretation (clinical susceptibility/resistance) [5, 20]	other results
CSc1ccc2c(c1)N(CCC1CCCCN1C)c1ccccc1S2 (racemic) [THIO, thioridazine]	16 (≈ 43.2 µM)	16 (≈ 43.2 µM)	16 (≈ 43.2 µM)	16 (≈ 43.2 µM)	16 (≈ 43.2 µM)	16 (≈ 43.2 µM)	16 to 32														
CN1CCN(CCCN2c3ccccc3Sc3ccc(Cl)cc32)CC1 [PCP, prochlorperazine]	32 (≈ 85.6 µM)	64 (≈ 171 µM)	32 (≈ 85.6 µM)	64 (≈ 171 µM)	64 (≈ 171 µM)	32 (≈ 85.6 µM)	32 to 64														
CC1(C)S[C@@H]2[C@H](NC(=O)[C@H](N)c3ccccc3)C(=O)N2[C@H]1C(=O)O [ampicillin]								R	R	R	R	R	R	R	S	S	S	S	R	S	MIC ([4]; human E. faecium strain 79765, read-out: MIC (E-test)): 24 µg/mL; MIC ([4]; human E. faecium strain 87156, read-out: MIC (E-test)): 48 µg/mL; MIC ([4]; human E. faecium strains 73047, 91185, read-out: MIC (E-test)): 48 µg/mL; MIC ([4]; veterinary E. faecium strain 30651, read-out: MIC (E-test)): 8 µg/mL; MIC ([4]; veterinary E. faecium strain 30658, read-out: MIC (E-test)): 4 µg/mL; MIC ([4]; veterinary E. faecium strains 30656, 30665, read-out: MIC (E-test)): 6 µg/mL; MIC ([5]; human E. faecalis strain A (Van B), read-out: MIC (E-test)): 0.5 µg/mL; MIC ([5]; human E. faecalis strain B (Van B), read-out: MIC (E-test)): 0.5 µg/mL; MIC ([5]; human E. faecalis strain C (Van B), read-out: MIC (E-test)): 1 µg/mL; MIC ([5]; human E. faecalis strain D (Van A), read-out: MIC (E-test)): 1 µg/mL; MIC ([5]; human E. faecalis strain E, read-out: MIC (E-test)): 32 µg/mL; MIC ([5]; veterinary E. faecalis strain DR 2698, read-out: MIC (E-test)): 1 µg/mL; MIC ([5]; veterinary E. faecalis strain VT 37, read-out: MIC (E-test)): 1 µg/mL; MIC ([5]; veterinary E. faecalis strain VT 71, read-out: MIC (E-test)): 2 µg/mL; MIC ([5]; veterinary E. faecalis strains VT16, VT 22, DR 2891, read-out: MIC (E-test)): 1 µg/mL; Interpretation (clinical susceptibility/resistance) [5, 21]: S; Interpretation (clinical susceptibility/resistance) [5, 22]: S; Interpretation (clinical susceptibility/resistance) [5, 23]: S
CN[C@H](CC(C)C)C(=O)N[C@H]1C(=O)N[C@@H](CC(N)=O)C(=O)N[C@H]2C(=O)N[C@H]3C(=O)N[C@H](C(=O)N[C@H](C(=O)O)c4cc(O)cc(O)c4-c4cc3ccc4O)[C@H](O)c3ccc(c(Cl)c3)Oc3cc2cc(c3O[C@@H]2O[C@H](CO)[C@@H](O)[C@H](O)[C@H]2O[C@H]2C[C@](C)(N)[C@H](O)[C@H](C)O2)Oc2ccc(cc2Cl)[C@H]1O [vancomycin]								S	S	S	S	S	S	S	R	R	R	R	S	S	MIC ([4]; read-out: MIC (E-test), human E. faecium strain 76366): 3 µg/mL; MIC ([4]; read-out: MIC (E-test), human E. faecium strain 79765): 3 µg/mL; MIC ([4]; read-out: MIC (E-test), human E. faecium strain 87156): 2 µg/mL; MIC ([4]; read-out: MIC (E-test), human E. faecium strains 73047, 91185): 3 µg/mL; MIC ([4]; read-out: MIC (E-test), veterinary E. faecium strain 30651): 1.5 µg/mL; MIC ([4]; read-out: MIC (E-test), veterinary E. faecium strain 30658): 1.5 µg/mL; MIC ([4]; read-out: MIC (E-test), veterinary E. faecium strains 30656, 30665): 1.5 µg/mL; MIC ([5]; read-out: MIC (E-test), human E. faecalis strain A (Van B)): 48 µg/mL; MIC ([5]; read-out: MIC (E-test), human E. faecalis strain B (Van B)): 4 µg/mL; MIC ([5]; read-out: MIC (E-test), human E. faecalis strain C (Van B)): 32 µg/mL; MIC ([5]; read-out: MIC (E-test), human E. faecalis strain E): 2 µg/mL; MIC ([5]; read-out: MIC (E-test), veterinary E. faecalis strain DR 2698): 2 µg/mL; MIC ([5]; read-out: MIC (E-test), veterinary E. faecalis strain VT 37): 4 µg/mL; MIC ([5]; read-out: MIC (E-test), veterinary E. faecalis strain VT 71): 4 µg/mL; MIC ([5]; read-out: MIC (E-test), veterinary E. faecalis strains VT16, VT 22, DR 2891): 6 µg/mL; Interpretation (clinical susceptibility/resistance) [5, 21]: R; Interpretation (clinical susceptibility/resistance) [5, 22]: R; Interpretation (clinical susceptibility/resistance) [5, 23]: R
